Experimental data as given in the supplement of paper PMC3334620.
Over roughly 33,000 sequences, “E-score (-0.5 to 0.5)” has its median near -0.012; the highest 2% begin near 0.29. The list shows a part of the results.

The sequences below were run against T1, Ybr033w (UniProt P38073) (assay: PBM E-score (8-mer binding enrichment) (E-score (-0.5 to 0.5)); higher = stronger / more preferred TF binding; most listed sequences are background and not binding sites). Settings: protein concentration: 200 nM; construct: GST-full length.
T1 sequence: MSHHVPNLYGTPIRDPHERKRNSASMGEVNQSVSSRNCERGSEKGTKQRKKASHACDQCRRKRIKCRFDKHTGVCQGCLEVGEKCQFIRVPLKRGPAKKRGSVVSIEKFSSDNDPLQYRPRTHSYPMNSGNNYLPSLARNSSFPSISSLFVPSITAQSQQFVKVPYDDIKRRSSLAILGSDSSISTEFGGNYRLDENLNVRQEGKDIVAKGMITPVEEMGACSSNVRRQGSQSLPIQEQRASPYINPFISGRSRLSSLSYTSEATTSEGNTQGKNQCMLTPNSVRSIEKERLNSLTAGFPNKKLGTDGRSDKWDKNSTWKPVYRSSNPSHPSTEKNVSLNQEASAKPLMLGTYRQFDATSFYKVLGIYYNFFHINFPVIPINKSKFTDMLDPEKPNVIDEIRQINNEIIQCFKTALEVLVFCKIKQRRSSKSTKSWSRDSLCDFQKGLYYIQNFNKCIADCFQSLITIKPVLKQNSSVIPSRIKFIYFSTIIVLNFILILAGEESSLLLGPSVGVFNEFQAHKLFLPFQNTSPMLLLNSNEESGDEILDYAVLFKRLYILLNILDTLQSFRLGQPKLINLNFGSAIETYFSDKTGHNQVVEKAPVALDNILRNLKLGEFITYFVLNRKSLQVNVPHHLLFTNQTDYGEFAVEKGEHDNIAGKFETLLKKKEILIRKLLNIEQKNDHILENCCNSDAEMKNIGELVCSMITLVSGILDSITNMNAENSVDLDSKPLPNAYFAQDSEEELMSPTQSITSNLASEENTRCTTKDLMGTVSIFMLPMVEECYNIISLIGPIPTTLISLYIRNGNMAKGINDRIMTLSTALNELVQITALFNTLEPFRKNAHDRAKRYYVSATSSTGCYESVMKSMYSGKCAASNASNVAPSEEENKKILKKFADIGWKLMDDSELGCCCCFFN
Experimental: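 Universal 'all 10-mer' protein binding microarrays (Agilent AMADID 015681) probed with GST-tagged S. cerevisiae TFs (full-length or DBD) made by in vitro transcription/translation (PURExpress), about 100-200 nM. Bound TF was detected with fluorescent anti-GST. Each ungapped 8-mer (which stands for itself and its reverse complement) is scored by the PBM enrichment score (E-score), a modified Wilcoxon-Mann-Whitney statistic from -0.5 to +0.5, computed with the Universal PBM Analysis Suite. Scale: above 0.35 generally sequence-specific binding.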

Sequence | PBM E-score
ATCTCATG | 0.0775
AGGGCTCC | -0.356
AATTAAGT | 0.305
CAGATCTG | -0.118
AATTCAGA | 0.177
CGACAAAC | 0.0224
ACTGGAGC | -0.219
CGTCGTAC | -0.016
GGCACGAA | 0.0344
GGAATTCA | 0.288
ACAAAACT | 0.153
CAAAAGCG | -0.0333
TGACCTCA | -0.17
CACGGGGG | -0.32
GGAGTACA | -0.0776
CAATGCTG | 0.089
CTTGGCAA | -0.103
GAATAGAC | -0.054
GTTGATCA | 0.125
CCAAAAGG | 0.00511
ACATAATA | 0.247
CCTCAATC | 0.0546
ACTGATGA | 0.106
GAAACCGA | -0.0906
GTGGGTGA | -0.00057

Sequence | PBM E-score
AATCTAGG | 0.135
AGCGTGTA | -0.0942
ACAGTGTG | 0.024
CATCGGAG | -0.0156
CTGATCAA | -0.00675
CTGCAAGC | -0.102
CCAGCAGA | 0.00492
TATAAACA | 0.247
TATGTGCA | -0.0361
CGCTGACG | -0.218
AATCTGCC | 0.138
GTCTCCGA | 0.0658
ACTGGCCA | -0.174
AAATTAAA | 0.339
ACGAAACA | 0.109
GTCTGCCA | -0.11
AACGTCTT | 0.0136
GTACCCTA | -0.0808
GCATCAGA | 0.133
CCCCGGAG | -0.0119
AATTCTCT | -0.229
GTCACAAA | 0.032
GCCGCTCC | -0.391
ACACCTGT | -0.021
CAGTTTGA | 0.206

Sequence | PBM E-score
CGCTGCAA | 0.0965
AAGGCGCT | -0.05
CCGTTCTC | -0.043
CGCAGCCG | -0.311
AACTGCTG | 0.0765
AGAGGGTA | -0.0604
AAATAGGA | 0.16
CACTGACG | -0.253
GATAATTA | 0.361
CGCTCAAA | 0.061
CGTTAGCC | -0.0947
TAAGCGGA | 0.00991
ACGCCACT | -0.0677
CCCAACCC | -0.0507
CAGAACTA | -0.0173
ATCCAATA | 0.157
AGTGTACG | -0.041
AGCTACCG | -0.111
CGCCGGTC | -0.177
CCGAGCCC | -0.299
ATAGTTAA | 0.189
GTTGAGCA | -0.0327
GAAAGGAC | 0.107
GACAGCTC | -0.234
GATTGTGA | 0.111

Sequence | PBM E-score
TACTCTCA | 0.185
CGAAGCGC | -0.0184
GACAGGCC | -0.303
CGAAAGGC | -0.132
GCGGCAGA | -0.266
AGTTTGCC | 0.107
AAAATTGA | 0.131
TGGTCTAA | -0.0524
CTACTGTA | 0.187
CCCTACCA | -0.0965
AACCGCAT | 0.0575
AGTTCGCA | -0.053
ATCGCGAC | 0.0512
CCCAACGG | -0.12
AGAGGACA | -0.0337
ATCTAACC | 0.0416
GTGTCATA | 0.164
CGAAGGCG | -0.0641
ACTAAACT | 0.115
CGTTTAAC | 0.124
AATTGGCT | 0.15
ATGACAAA | 0.0607
CGAGCTAG | -0.136
AAGCCACC | -0.195
CCTGAGAG | -0.304

Sequence | PBM E-score
ACCCGTTC | -0.0745
AATTCGCT | 0.248
ATGCAGTG | -0.0558
AGCGTGAG | -0.234
AGGGCTTA | -0.142
ACCTTCCA | -0.0391
ACGACCTA | -0.00481
GATATGAC | 0.135
AAATACAG | 0.111
GGACTCCC | -0.378
AATGTGGT | 0.0529
AATAACCC | 0.203
TAACAAGA | 0.069
CGGACTCA | -0.168
AGCGCTAA | -0.00937
CTCTATAC | -0.0417
ACCGTTTA | 0.00161
ATTAGTGG | 0.157
AAGTTAAG | -0.149
TAATACGA | 0.176
TCTAGAAA | 0.0702
CAATCCCC | -0.0646
AGACCTAA | -0.157
AGTCTACA | -0.0713
CAACTGTG | -0.103

Sequence | PBM E-score
AGGGGGCG | -0.322
AGTTCAAC | 0.128
CATTAGGC | -0.00848
CTCCAACA | 0.105
CATACGAC | 0.0253
ATACTCAA | 0.271
CATGCCGA | -0.0386
ACCGTAAC | -0.0726
AGACTAAC | 0.0352
CGGGTCTC | -0.316
CGGACCAA | 0.062
GGGAGTTA | 0.132
AACCAGAT | 0.123
GTTTCTGA | -0.0471
CGCGAGCA | -0.12
ATAGAATG | 0.0842
CCCTAAAC | -0.126
TGCTCGAA | -0.0338
GGGGCAAC | -0.238
AGTTTTCG | 0.186
GGCCTGCA | -0.386
ATACTTAG | 0.127
CCCTCATA | -0.0752
ATTTCTGA | 0.0138
TACCACCA | 0.076

Sequence | PBM E-score
GCATGGGC | -0.171
CTAAACGC | 0.0163
AAGCCCCC | -0.436
TATAGATA | 0.0691
CTGGGTCA | -0.14
ACCTATAC | 0.207
ATTGTAAA | 0.287
ATTCAACG | 0.114
ATGGACTC | -0.277
AGGGGCTA | -0.271
CGTCACTC | -0.138
TCACGCAA | 0.175
CGTGCCAA | -0.13
GGCGGCAC | -0.311
CCCTGTTA | 0.0393
GAGCTGTA | -0.11
AGTGGTGG | -0.0557
AAATAAAT | 0.298
CATGTGCG | -0.0312
CTGCCGAC | -0.185
CAACCTGG | 0.0332
CCCCGGAA | -0.117
